In a collection of fitness landscapes (doi:10.1016/j.celrep.2020.107928):
The full ranking holds about 81,000 sequences; the median of “one-hybrid fitness for binding parS DNA” is about -0.17, and the highest 2% start at about 0.51. The list shows a part of the results.

B1: Caulobacter ParB omega fusion; a variant is named by its letters at X, in order, B8GW30 (parent)
chain: MESVVVGEPGMSEGRRGLGRGLSALLGEVDAAPAQAPGEQLGGSREAPIEILQRNPDQPRRTFREEDLEDLSNSIREKGVLQPILVRPSPDTAGEYQIVAGERAWRAAQRAGLKTVPIMVRELDDLAVLEIGIIENVQRADLNVLEEALSYKVLMEKFERTQENIAQTIGKSXSHVANXMRLLXLPDEVQSYLVSGELTAXHARAIAAAADPVALAKQIIEGGLSVRETEALARKAPNLSAGKSKGGRPPRVKDTDTQALESDLSSVLGLDVSIDHRGSTGTLTITYATLEQLDDLCNRLTRGI

Variants of: B1
Assay: one-hybrid fitness for binding parS DNA (scaled: cognate 1, non-cognate 0); higher = stronger binding
Details: with parS DNA site
Summary of the method: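 On M9-minus-histidine containing 0.1 mM IPTG and 5 mM 3-AT, E. coli USO cells with a HIS3 reporter, site 19 bp from the promoter, grew 48 hours at 37°C to select Caulobacter ParB libraries randomised at four specificity codons. Plasmids from before and after were Illumina-sequenced, with three replicate libraries pooled and variants under 10 reads left out. Fitness is the log change in variant-to-wild-type read ratio, rescaled against cognate and non-cognate.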

Variant	one-hybrid fitness for binding parS DNA
IRRG	≤ 0.2
CVNG	≤ 0.2
GYPR	≤ 0.2
YSQT	≤ 0.2
GVCG	≤ 0.2
TNHE	≤ 0.2
RGYG	0.576
HCHR	≤ 0.2
SDVA	≤ 0.2
GKYW	≤ 0.2
DQIF	≤ 0.2
QKSR	≤ 0.2
SIYG	≤ 0.2
EEPL	≤ 0.2
NHRV	≤ 0.2
DSFR	≤ 0.2
LCCW	≤ 0.2
RQCD	≤ 0.2
GQCS	≤ 0.2
QSMQ	≤ 0.2
ILWC	≤ 0.2
APQD	≤ 0.2
RTWT	0.916
WFVG	≤ 0.2

Variant	one-hybrid fitness for binding parS DNA
DPCI	≤ 0.2
LRCG	≤ 0.2
TSEG	≤ 0.2
ITTD	≤ 0.2
FHYG	≤ 0.2
TQDN	≤ 0.2
AHKA	≤ 0.2
PKKG	≤ 0.2
VFAS	≤ 0.2
NGFG	≤ 0.2
QKKL	≤ 0.2
PNIN	≤ 0.2
RNDV	≤ 0.2
RPCY	≤ 0.2
SKVL	≤ 0.2
AKKC	≤ 0.2
REVF	≤ 0.2
RTDL	≤ 0.2
NQPN	≤ 0.2
MEKA	≤ 0.2
ASDN	≤ 0.2
LNWS	≤ 0.2
QRRA	≤ 0.2
DMFG	≤ 0.2

Variant	one-hybrid fitness for binding parS DNA
DLKS	≤ 0.2
ARTC	≤ 0.2
TSFC	≤ 0.2
RPGV	≤ 0.2
SICG	≤ 0.2
IEIS	≤ 0.2
MIYT	≤ 0.2
YLDY	≤ 0.2
HNVA	≤ 0.2
QLRH	≤ 0.2
SRYQ	≤ 0.2
HQNF	≤ 0.2
QRNW	≤ 0.2
IDNY	≤ 0.2
TYLC	≤ 0.2
RLHL	≤ 0.2
RGCQ	≤ 0.2
EMQL	≤ 0.2
CQNL	≤ 0.2
MQYS	≤ 0.2
PAKH	≤ 0.2
SWNC	≤ 0.2
QMKQ	≤ 0.2
MDDS	≤ 0.2

Variant	one-hybrid fitness for binding parS DNA
QKPM	≤ 0.2
GQGY	≤ 0.2
ECIL	≤ 0.2
NNSS	≤ 0.2
IPAS	≤ 0.2
RSWC	0.847
EGSL	≤ 0.2
SNMY	≤ 0.2
DLVA	≤ 0.2
ANLF	≤ 0.2
SEMD	≤ 0.2
PPKR	≤ 0.2
LVNA	≤ 0.2
GTQF	≤ 0.2
QQLG	≤ 0.2
IQCC	≤ 0.2
HHAM	≤ 0.2
NQNL	≤ 0.2
ALCT	≤ 0.2
HVNC	≤ 0.2
WADV	≤ 0.2
LHSC	≤ 0.2
DNKF	≤ 0.2
CLQW	≤ 0.2

Variant	one-hybrid fitness for binding parS DNA
RVYK	≤ 0.2
AHCL	≤ 0.2
PSHQ	≤ 0.2
ECAY	≤ 0.2
WRIG	≤ 0.2
LNTM	≤ 0.2
SGVL	≤ 0.2
PKMM	≤ 0.2
EPAG	≤ 0.2
QKGV	≤ 0.2
WESY	≤ 0.2
LDAA	≤ 0.2
CLLD	≤ 0.2
LPEA	≤ 0.2
MRRE	≤ 0.2
VRQT	≤ 0.2
ASAK	≤ 0.2
RVNC	0.947
SVCE	≤ 0.2
ENPQ	≤ 0.2
QIFV	≤ 0.2
EPGI	≤ 0.2
VPLI	≤ 0.2
PGNP	≤ 0.2

Variant	one-hybrid fitness for binding parS DNA
SMRF	≤ 0.2
IHKY	≤ 0.2
PPCE	≤ 0.2
HYQS	≤ 0.2
VEMR	≤ 0.2
RQPV	≤ 0.2
AHSN	≤ 0.2
VDCA	≤ 0.2
QEGF	≤ 0.2
RTEI	≤ 0.2
EVMS	≤ 0.2
ANRP	≤ 0.2
NHGT	≤ 0.2
MSAR	≤ 0.2
SEGR	≤ 0.2
LRKK	≤ 0.2
RYWC	0.887
QSGA	≤ 0.2
VNRD	≤ 0.2
PAMV	≤ 0.2
PWMW	≤ 0.2
VTRH	≤ 0.2
QLED	≤ 0.2
MYPM	≤ 0.2

Variant	one-hybrid fitness for binding parS DNA
DDTR	≤ 0.2
FVPC	≤ 0.2
CGYS	≤ 0.2
DPAK	≤ 0.2
FAGD	≤ 0.2
VNQW	≤ 0.2
DPQT	≤ 0.2
PAGW	≤ 0.2
SDNE	≤ 0.2
ALTV	≤ 0.2
RLLC	1
PWRN	≤ 0.2
AVSK	≤ 0.2
LFWP	≤ 0.2
AVQS	≤ 0.2
RDTS	≤ 0.2
HPSI	≤ 0.2
NNSV	≤ 0.2
MVLK	≤ 0.2
PWKW	≤ 0.2
KRYT	≤ 0.2
FLER	≤ 0.2
NWKW	≤ 0.2
LTAW	≤ 0.2

Variant	one-hybrid fitness for binding parS DNA
RPLM	≤ 0.2
DTNV	≤ 0.2
TAQC	≤ 0.2
TSIE	≤ 0.2
TSHA	≤ 0.2
DALC	≤ 0.2
FETG	≤ 0.2
QGRN	≤ 0.2
VVIM	≤ 0.2
ARMP	≤ 0.2
HLTF	≤ 0.2
GNTC	≤ 0.2
ARTN	≤ 0.2
KAVS	≤ 0.2
PVNA	≤ 0.2
RKCA	0.503
RPCM	≤ 0.2
WFRM	≤ 0.2
LWSW	≤ 0.2
PLKD	≤ 0.2
QRVA	≤ 0.2
NRLL	≤ 0.2
MLKT	≤ 0.2
PAYD	≤ 0.2

Variant	one-hybrid fitness for binding parS DNA
YVYL	≤ 0.2
DIRL	≤ 0.2
MRPD	≤ 0.2
KPLR	≤ 0.2
MQNK	≤ 0.2
TYNR	≤ 0.2
WAVR	≤ 0.2
LGPA	≤ 0.2
DCNM	≤ 0.2
SDPN	≤ 0.2
GMAE	≤ 0.2
FNNR	≤ 0.2
TRTE	≤ 0.2
PAEV	≤ 0.2
PRCD	≤ 0.2
RKGR	≤ 0.2
RMDI	≤ 0.2
GRNT	≤ 0.2
RGYK	≤ 0.2
HNSY	≤ 0.2
YAGM	≤ 0.2
NVKS	≤ 0.2
FSGF	≤ 0.2
RNAM	0.243

Variant	one-hybrid fitness for binding parS DNA
FGAS	≤ 0.2
GWSC	≤ 0.2
QLSG	≤ 0.2
STEC	≤ 0.2
ADQL	≤ 0.2
LQIT	≤ 0.2
DVAM	≤ 0.2
VGFG	≤ 0.2
CTPY	≤ 0.2
EMRT	≤ 0.2
PTVS	≤ 0.2
AEPR	≤ 0.2
NVHN	≤ 0.2
NHPD	≤ 0.2
TPHH	≤ 0.2
FPTS	≤ 0.2
STKK	≤ 0.2
AVTC	≤ 0.2
LVSG	≤ 0.2
YGTV	≤ 0.2
QTWK	≤ 0.2
RGRE	≤ 0.2
QCTV	≤ 0.2
TTYM	≤ 0.2

Variant	one-hybrid fitness for binding parS DNA
YPDI	≤ 0.2
VTMG	≤ 0.2
NTQL	≤ 0.2
YTNL	≤ 0.2
WVLH	≤ 0.2
VGWR	≤ 0.2
HRYP	≤ 0.2
EGES	≤ 0.2
YSRY	≤ 0.2
KLGS	≤ 0.2
DYPS	≤ 0.2
VVTP	≤ 0.2
AVTG	≤ 0.2
SHCG	≤ 0.2
HQEC	≤ 0.2
PHAG	≤ 0.2
ANTF	≤ 0.2
LCHS	≤ 0.2
QPMA	≤ 0.2
LLPI	≤ 0.2
TDFK	≤ 0.2
FYSR	≤ 0.2
RIPN	≤ 0.2
LKFG	≤ 0.2

Variant	one-hybrid fitness for binding parS DNA
VALT	≤ 0.2
YAMW	≤ 0.2
KYLM	≤ 0.2
EHHT	≤ 0.2
FVYR	≤ 0.2
QKCY	≤ 0.2
TKDR	≤ 0.2
VNHA	0.272
DCWL	≤ 0.2
RGSA	0.399
RGRY	0.413
HVTG	≤ 0.2
DYYC	≤ 0.2
DHHG	≤ 0.2
TIRV	≤ 0.2
TMGS	≤ 0.2
NEQA	≤ 0.2
FGER	≤ 0.2
AGPR	≤ 0.2
QSRC	≤ 0.2
RPQT	≤ 0.2
ARPC	≤ 0.2
QRKI	≤ 0.2
RFDP	≤ 0.2

Variant	one-hybrid fitness for binding parS DNA
VMPM	≤ 0.2
PTFA	≤ 0.2
FIVD	≤ 0.2
QRCW	≤ 0.2
QLHY	≤ 0.2
VPVI	≤ 0.2
FCEG	≤ 0.2
PFKS	≤ 0.2
IPRT	≤ 0.2
PYET	≤ 0.2
KFVV	≤ 0.2
DGAI	≤ 0.2
ICAC	≤ 0.2
QCYP	≤ 0.2
EGPS	≤ 0.2
LTQV	≤ 0.2
GLSL	≤ 0.2
RCIP	0.228
